Data from patent US9695132B2, “Heteroaryl compounds and uses thereof” (Celgene CAR LLC, priority 2013, dated 2017).

target: FGFR4 (Homo sapiens (Human), UniProt P22455); assay: Protein mass modification assay (MALDI, intact FGFR4); type: binding; conditions: method a: FGFR4 intact protein from SignalChem; 10-fold excess of compound, 60 min

Row | SMILES | MS FGFR4 (mass modification)
1 | C=CC(=O)Nc1ccccc1Nc1ncc2cc(-c3cc(OC)cc(OC)c3)c(N)nc2n1 [Compound I-155] | E (mass modification of ≧70%)
2 | C=CC(=O)Nc1cc(C(F)(F)F)ccc1Nc1ncc2c(n1)N(Cc1ccccc1)C(=O)N(c1c(Cl)c(OC)cc(OC)c1Cl)C2 [Compound I-10] | G (mass modification ≦30%)
3 | C=CC(=O)Nc1ccccc1Nc1ncc2c(n1)N(C1CC1)C(=O)N(c1c(Cl)c(OC)cc(OC)c1Cl)C2 [Compound I-23] | E (mass modification of ≧70%)
4 | C=CC(=O)Nc1ccccc1Nc1ncc2c(n1)N(Cc1cccc(F)c1)C(=O)N(c1c(Cl)c(OC)cc(OC)c1Cl)C2 [Compound I-12] | E (mass modification of ≧70%)
5 | C=CC(=O)Nc1ccccc1Nc1ncc2c(n1)N(Cc1ccc(Cl)c(OC)c1)C(=O)N(c1c(Cl)c(OC)cc(OC)c1Cl)C2 [Compound I-24] | E (mass modification of ≧70%)
6 | C=CC(=O)Nc1cc(Cl)c(Cl)cc1Nc1ncc2c(n1)N(Cc1ccccc1)C(=O)N(c1c(Cl)c(OC)cc(OC)c1Cl)C2 [Compound I-11] | F (mass modification of 31-69%)
7 | C=CC(=O)Nc1cc(OCCOC)ccc1Nc1ncc2c(n1)N(Cc1ccccc1)C(=O)N(c1cc(OC)cc(OC)c1)C2 [Compound I-14] | E (mass modification of ≧70%)
8 | CCC(=O)Nc1ccccc1Nc1ncc2c(n1)N(Cc1ccccc1)C(=O)N(c1c(Cl)c(OC)cc(OC)c1Cl)C2 [Compound I-236] | G (mass modification ≦30%)
9 | C=CC(=O)Nc1ccccc1Nc1ncc2c(n1)N(Cc1cccc(OC)c1)C(=O)N(c1c(Cl)c(OC)cc(OC)c1Cl)C2 [Compound I-28] | F (mass modification of 31-69%)
10 | C=CC(=O)Nc1ccccc1Nc1ncc2c(n1)N(C1CCCN(C(=O)OC(C)(C)C)C1)C(=O)N(c1cc(OC)cc(OC)c1)C2 (centres unmarked) [Compound I-36] | F (mass modification of 31-69%)
11 | C=CC(=O)Nc1cc(N2CCOCC2)ccc1Nc1ncc2c(n1)N(C)C(=O)N(c1cc(OC)cc(OC)c1)C2 [Compound I-17] | E (mass modification of ≧70%)
12 | C=CC(=O)Nc1ccccc1Nc1ncc2c(n1)N(CC(O)CO)C(=O)N(c1cc(OC)cc(OC)c1)C2 (centres unmarked) [Compound I-33] | F (mass modification of 31-69%)
13 | C=CC(=O)NCc1ccccc1Nc1ncc2c(n1)N(C)C(=O)N(c1c(Cl)c(OC)cc(OC)c1Cl)C2 [Compound I-181] | E (mass modification of ≧70%)
14 | C=CC(=O)Nc1ccc(C(F)(F)F)cc1Nc1ncc2c(n1)N(C)C(=O)N(c1cc(OC)cc(OC)c1)C2 [Compound I-50] | E (mass modification of ≧70%)
15 | C=CC(=O)Nc1ccccc1Nc1ncc2c(n1)N(Cc1cccc(N)c1)C(=O)N(c1c(Cl)c(OC)cc(OC)c1Cl)C2 [Compound I-26] | E (mass modification of ≧70%)
16 | C=CC(=O)NC1CCCCC1Nc1ncc2c(n1)N(C1CCCNC1)C(=O)N(c1cc(OC)cc(OC)c1)C2 (racemic) [Compound I-46] | G (mass modification ≦30%)
17 | C=CC(=O)Nc1ccccc1Nc1ncc2c(n1)N(C)C(=O)N(c1c(Cl)c(OC)cc(OC)c1Cl)C2 [Compound I-2] | E (mass modification of ≧70%)
18 | C=CC(=O)Nc1cc(N2CCN(CCOC)CC2)ccc1Nc1ncc2c(n1)N(C)C(=O)N(c1cc(OC)cc(OC)c1)C2 [Compound I-20] | F (mass modification of 31-69%)
19 | C=CC(=O)Nc1cc(N2CCN(CC)CC2)ccc1Nc1ncc2c(n1)N(C)C(=O)N(c1cc(OC)cc(OC)c1)C2 [Compound I-15] | E (mass modification of ≧70%)
20 | C=CC(=O)Nc1ccccc1CNc1ncc2c(n1)N(Cc1cccc(NC(=O)CC)c1)C(=O)N(c1c(Cl)c(OC)cc(OC)c1Cl)C2 [Compound I-180] | F (mass modification of 31-69%)
21 | C=CC(=O)Nc1ccccc1Nc1ncc2c(n1)N(CCC(O)CO)C(=O)N(c1cc(OC)cc(OC)c1)C2 (centres unmarked) [Compound I-58] | F (mass modification of 31-69%)
22 | C=CC(=O)Nc1ccccc1Nc1ncc2c(n1)N(C)C(=O)N(c1ccccc1)C2 [Compound I-38] | E (mass modification of ≧70%)

Row | SMILES | MS FGFR4 (mass modification)
23 | C=CC(=O)Nc1cc(C2CCN(CC)CC2)ccc1Nc1ncc2c(n1)N(C)C(=O)N(c1cc(OC)cc(OC)c1)C2 [Compound I-54] | F (mass modification of 31-69%)
24 | C=CC(=O)NC1CCCCC1Nc1ncc2c(n1)N(CC#N)C(=O)N(c1c(Cl)c(OC)cc(OC)c1Cl)C2 (racemic) [Compound I-47] | E (mass modification of ≧70%)
25 | C=CC(=O)Nc1ccccc1Nc1ncc2c(n1)N(Cc1ccccc1)C(=O)N(c1c(Cl)c(OC)cc(OC)c1Cl)C2 [Compound I-3] | F (mass modification of 31-69%)
26 | COc1cc(OC)cc(N2Cc3cnc(Nc4ccccc4)nc3N(C)C2=O)c1 [Compound I-237] | G (mass modification ≦30%)
27 | COc1cc(OC)c(Cl)c(N2Cc3cnc(Nc4ccccc4)nc3N(C)C2=O)c1Cl [Compound I-238] | G (mass modification ≦30%)
28 | C=CC(=O)Nc1ccccc1Nc1ncc2c(n1)N(CC#N)C(=O)N(c1cc(OC)cc(OC)c1)C2 [Compound I-48] | E (mass modification of ≧70%)
29 | C=CC(=O)Nc1ccccc1Nc1ncc2c(n1)N(C1CC1)C(=O)N(c1cc(OC)cc(OC)c1)C2 [Compound I-34] | E (mass modification of ≧70%)
30 | C=CC(=O)Nc1cc(N(C)CCOC)ccc1Nc1ncc2c(n1)N(Cc1ccccc1)C(=O)N(c1cc(OC)cc(OC)c1)C2 [Compound I-13] | E (mass modification of ≧70%)
31 | C=CC(=O)Nc1ccc(C)cc1Nc1ncc2c(n1)N(C)C(=O)N(c1cc(OC)cc(OC)c1)C2 [Compound I-49] | E (mass modification of ≧70%)
32 | C=CC(=O)Nc1ccc(N2CCN(CC)CC2)cc1Nc1ncc2c(n1)N(C)C(=O)N(c1cc(OC)cc(OC)c1)C2 [Compound I-30] | F (mass modification of 31-69%)
33 | C=CC(=O)NCc1ccccc1Nc1ncc2c(n1)N(Cc1cccc(NC(=O)CC)c1)C(=O)N(c1c(Cl)c(OC)cc(OC)c1Cl)C2 [Compound I-179] | E (mass modification of ≧70%)
34 | C=CC(=O)NC1CCCCC1Nc1ncc2c(n1)N(Cc1cccnc1)C(=O)N(c1c(Cl)c(OC)cc(OC)c1Cl)C2 (racemic) [Compound I-35] | E (mass modification of ≧70%)
35 | C=CC(=O)Nc1ccccc1Nc1ncc2c(n1)N(C)C(=O)N(c1cc(OC)cc(OC)c1)C2 [Compound I-5] | E (mass modification of ≧70%)
36 | C=CC(=O)Nc1ccc(Nc2ncc3c(n2)N(Cc2cccc(NC(=O)CC)c2)C(=O)N(c2c(Cl)c(OC)cc(OC)c2Cl)C3)cc1 [Compound I-233] | G (mass modification ≦30%)
37 | C=CCN1C(=O)N(c2cc(OC)cc(OC)c2)Cc2cnc(Nc3ccccc3NC(=O)C=C)nc21 [Compound I-32] | F (mass modification of 31-69%)
38 | C=CC(=O)Nc1cc(N2CCCCC2)ccc1Nc1ncc2c(n1)N(C)C(=O)N(c1cc(OC)cc(OC)c1)C2 [Compound I-31] | E (mass modification of ≧70%)
39 | C=CC(=O)NC1CCCCC1Nc1ncc2c(n1)N(Cc1cccc(NC(=O)CC)c1)C(=O)N(c1c(Cl)c(OC)cc(OC)c1Cl)C2 (racemic) [Compound I-8] | F (mass modification of 31-69%)
40 | C=CC(=O)Nc1ccccc1Nc1ncc2c(n1)N(Cc1ccc(F)cc1)C(=O)N(c1c(Cl)c(OC)cc(OC)c1Cl)C2 [Compound I-25] | E (mass modification of ≧70%)
41 | C=CC(=O)NC1CCCCC1Nc1ncc2c(n1)N(C)C(=O)N(c1c(Cl)c(OC)cc(OC)c1Cl)C2 (racemic) [Compound I-19] | E (mass modification of ≧70%)
42 | C=CC(=O)Nc1cc(C(F)(F)F)ccc1Nc1ncc2c(n1)N(C)C(=O)N(c1cc(OC)cc(OC)c1)C2 [Compound I-42] | F (mass modification of 31-69%)
43 | C=CC(=O)Nc1cc(N(C)CCOC)ccc1Nc1ncc2c(n1)N(C)C(=O)N(c1cc(OC)cc(OC)c1)C2 [Compound I-21] | F (mass modification of 31-69%)
44 | C=CC(=O)Nc1ccccc1Nc1ncc2c(n1)N(C)C(=O)N(C1CCCCC1)C2 [Compound I-52] | F (mass modification of 31-69%)

same assay, conditions: method b: FGFR4 intact protein from Invitrogen; 10-fold excess of compound, 60 min

Row | SMILES | MS FGFR4 (mass modification)
45 | C=CC(=O)Nc1ccccc1Nc1ncc2c(n1)N(Cc1cscn1)C(=O)N(c1cc(OC)cc(OC)c1)C2 [Compound I-64] | E (mass modification of ≧70%)
46 | C=CC(=O)N[C@@H]1CCCC[C@@H]1Nc1ncc2c(n1)N(Cc1ccccc1)C(=O)N(c1c(Cl)c(OC)cc(OC)c1Cl)C2 [Compound I-66] | G (mass modification ≦30%)
47 | C=CC(=O)Nc1ccccc1Nc1ncc2c(n1)N(Cc1cccnc1)C(=O)N(c1cc(OC)cc(OC)c1)C2 [Compound I-44] | E (mass modification of ≧70%)
48 | C=CC(=O)Nc1ccccc1Nc1ncc2c(n1)N(C1CCCNC1)C(=O)N(c1cc(OC)cc(OC)c1)C2 (centres unmarked) [Compound I-43] | E (mass modification of ≧70%)
49 | C=CC(=O)NC1CCCCC1Nc1ncc2c(n1)N(Cc1cscn1)C(=O)N(c1c(Cl)c(OC)cc(OC)c1Cl)C2 (racemic) [Compound I-69] | E (mass modification of ≧70%)
50 | C=CC(=O)NC1CCCCC1Nc1ncc2c(n1)N(C1CCCN(C(=O)OC(C)(C)C)C1)C(=O)N(c1cc(OC)cc(OC)c1)C2 (racemic) [Compound I-45] | F (mass modification of 31-69%)
51 | C=CC(=O)Nc1ccccc1Nc1ncc2c(n1)N(C)C(=O)N(c1c(Cl)cccc1Cl)C2 [Compound I-83] | E (mass modification of ≧70%)
52 | C=CC(=O)Nc1nn(C)cc1Nc1ncc2c(n1)N(C)C(=O)N(c1c(Cl)c(OC)cc(OC)c1Cl)C2 [Compound I-117] | E (mass modification of ≧70%)
53 | C=CC(=O)N[C@H]1CCCC[C@H]1Nc1ncc2c(n1)N(Cc1ccccc1)C(=O)N(c1c(Cl)c(OC)cc(OC)c1Cl)C2 [Compound I-82] | F (mass modification of 31-69%)
